# Measurements: publication PMC9911399, “Two distinct binding modes provide the RNA-binding protein RbFox with extraordinary sequence specificity”
# Positions count from the first letter of the chain named. This is one part of the list.
# T1: RBFOX1 RRM (Homo sapiens, UniProt Q9NWB1 109-208)
# T1 sequence: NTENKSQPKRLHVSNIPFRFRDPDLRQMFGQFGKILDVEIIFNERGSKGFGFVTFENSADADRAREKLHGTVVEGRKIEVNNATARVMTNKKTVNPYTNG
# B1: GGACUCU (DNA:RNA)
# RNA: GGGAGACCGGAAUUCAGAUUGUCCGGACUCUUUAAAUCCCGUCGUAGCCACCA
# DNA 1: CAATCTGAATTCCGGTCTCCC
# DNA 2: TGGTGGCTACGACGGGATT
# B2: CAGGUAC (DNA:RNA)
# RNA: B1 RNA with G25C, G26A, A27G, C28G, C30A, U31C
# DNA 1: CAATCTGAATTCCGGTCTCCC
# DNA 2: TGGTGGCTACGACGGGATT
# B3: AAACUCC (DNA:RNA)
# RNA: B1 RNA with G25A, G26A, U31C
# DNA 1: CAATCTGAATTCCGGTCTCCC
# DNA 2: TGGTGGCTACGACGGGATT
# B4: AAGAAUC (DNA:RNA)
# RNA: GGGAGACCGGAAUUCAGAUUGUCCAAGAAUCUUAAAUCCCGUCGUAGCCACCA
# DNA 1: CAATCTGAATTCCGGTCTCCC
# DNA 2: TGGTGGCTACGACGGGATT
# B5: UCAGACG (DNA:RNA)
# RNA: B1 RNA with G25U, G26C, C28G, U29A, U31G
# DNA 1: CAATCTGAATTCCGGTCTCCC
# DNA 2: TGGTGGCTACGACGGGATT
# B6: UCGUAUC (DNA:RNA)
# RNA: B4 RNA with A25U, A26C, A28U
# DNA 1: CAATCTGAATTCCGGTCTCCC
# DNA 2: TGGTGGCTACGACGGGATT
# B7: CUCGAUU (DNA:RNA)
# RNA: B4 RNA with A25C, A26U, G27C, A28G, C31U
# DNA 1: CAATCTGAATTCCGGTCTCCC
# DNA 2: TGGTGGCTACGACGGGATT
# B8: GUAUGCG (DNA:RNA)
# RNA: B1 RNA with G26U, C28U, U29G, U31G
# DNA 1: CAATCTGAATTCCGGTCTCCC
# DNA 2: TGGTGGCTACGACGGGATT
# B9: GAACCAC (DNA:RNA)
# RNA: B1 RNA with G26A, U29C, C30A, U31C
# DNA 1: CAATCTGAATTCCGGTCTCCC
# DNA 2: TGGTGGCTACGACGGGATT
# B10: AAACCGC (DNA:RNA)
# RNA: B4 RNA with G27A, A28C, A29C, U30G
# DNA 1: CAATCTGAATTCCGGTCTCCC
# DNA 2: TGGTGGCTACGACGGGATT
# B11: CUCAAUA (DNA:RNA)
# RNA: B4 RNA with A25C, A26U, G27C, C31A
# DNA 1: CAATCTGAATTCCGGTCTCCC
# DNA 2: TGGTGGCTACGACGGGATT
# B12: GCGAGUC (DNA:RNA)
# RNA: B4 RNA with A25G, A26C, A29G
# DNA 1: CAATCTGAATTCCGGTCTCCC
# DNA 2: TGGTGGCTACGACGGGATT
# B13: CUACGUU (DNA:RNA)
# RNA: B1 RNA with G25C, G26U, U29G, C30U
# DNA 1: CAATCTGAATTCCGGTCTCCC
# DNA 2: TGGTGGCTACGACGGGATT
# B14: CGAUUGA (DNA:RNA)
# RNA: B1 RNA with G25C, C28U, C30G, U31A
# DNA 1: CAATCTGAATTCCGGTCTCCC
# DNA 2: TGGTGGCTACGACGGGATT
# B15: UACAGUG (DNA:RNA)
# RNA: B4 RNA with A25U, G27C, A29G, C31G
# DNA 1: CAATCTGAATTCCGGTCTCCC
# DNA 2: TGGTGGCTACGACGGGATT
# B16: UAGUCAC (DNA:RNA)
# RNA: B4 RNA with A25U, A28U, A29C, U30A
# DNA 1: CAATCTGAATTCCGGTCTCCC
# DNA 2: TGGTGGCTACGACGGGATT
# B17: GAUAAGC (DNA:RNA)
# RNA: B4 RNA with A25G, G27U, U30G
# DNA 1: CAATCTGAATTCCGGTCTCCC
# DNA 2: TGGTGGCTACGACGGGATT
# B18: CCAGCAC (DNA:RNA)
# RNA: B4 RNA with A25C, A26C, G27A, A28G, A29C, U30A
# DNA 1: CAATCTGAATTCCGGTCTCCC
# DNA 2: TGGTGGCTACGACGGGATT
# B19: CUACGAG (DNA:RNA)
# RNA: B1 RNA with G25C, G26U, U29G, C30A, U31G
# DNA 1: CAATCTGAATTCCGGTCTCCC
# DNA 2: TGGTGGCTACGACGGGATT
# B20: CUUCCUC (DNA:RNA)
# RNA: B4 RNA with A25C, A26U, G27U, A28C, A29C
# DNA 1: CAATCTGAATTCCGGTCTCCC
# DNA 2: TGGTGGCTACGACGGGATT
# Biological target: T1, RBFOX1 RRM
# Assay: EMSA; HiTS-Eq, 1 nM pool, 10 min; buffer printed only for the single-RNA assays: 10 mM Tris pH 7.5, 150 mM NaCl, 3.4 mM EDTA, 0.001% NP-40, 30 C
# Settings: tags: His6 N-terminal (pET28a); label: 5' 32P
# Summary of the method: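 Relative association constants, normalised to the cognate motif, were derived by comparing read counts of each RNA species with those of the control reaction. The RNA sequenced was the free fraction, separated by 8% native PAGE after a 10 min equilibration in 50 µL of 1 nM 5′-radiolabelled RNA (7 randomized nucleotides) with increasing concentrations of purified wild-type or mutant RbFox RRM.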
row,Binder,binding signal
1,B1,0.0119 KA relative to UGCAUGU
2,B2,0.0123 KA relative to UGCAUGU
3,B3,0.000391 KA relative to UGCAUGU
4,B4,0.00582 KA relative to UGCAUGU
5,B5,0.00574 KA relative to UGCAUGU
6,B6,0.0121 KA relative to UGCAUGU
7,B7,0.0084 KA relative to UGCAUGU
8,B8,0.0216 KA relative to UGCAUGU
9,B9,0.00199 KA relative to UGCAUGU
10,B10,0.00274 KA relative to UGCAUGU
11,B11,0.00128 KA relative to UGCAUGU
12,B12,0.0185 KA relative to UGCAUGU
13,B13,0.00949 KA relative to UGCAUGU
14,B14,0.0198 KA relative to UGCAUGU
15,B15,0.0137 KA relative to UGCAUGU
16,B16,0.00687 KA relative to UGCAUGU
17,B17,0.00832 KA relative to UGCAUGU
18,B18,0.00938 KA relative to UGCAUGU
19,B19,0.00732 KA relative to UGCAUGU
20,B20,0.0039 KA relative to UGCAUGU
